Measurements as given in patent publication US8858962B2, “Adjuvant or pharmaceutical preparation for transdermal or transmucosal administration” (priority 2005, dated 2014).

Test system: influenza H3N2
Assay: Antibody titer after influenza H3N2 antigen with LA, transnasal or intradermal (FIG. 6)

## CCCCCCCCCCCCO [Lauryl alcohol, lauryl alcohol]
Influenza H3N2 0.07 μg/head, antigen solution:LA:Tween 80 1:1:0.01, intradermal
  adjuvant effect, intradermal administration: adjuvant effect of LA was observed
Influenza H3N2 1 μg/head, antigen solution:LA:Tween 80 9:1:0.05, dropwise to the nose, compared with the antigen on its own
  antibody titer, transnasal administration: the antibody titer increased
